According to patent US20250002564A1 (HOSPITAL FOR SICK CHILDREN, published 2025):
Values joined by “and” are separate entries in the source; they are usually repeats but may differ in a detail not shown here. Identical values can stand only once. Like-named read-outs stand apart in the source and are kept apart here.

B1: VHH-72-Fc (Fc fusion)
chain: QVQLQESGGGLVQAGGSLRLSCAASGRTFSEYAMGWFRQAPGKEREFVATISWSGGSTYYTDSVKGRFTISRDNAKNTVYLQMNSLKPDDTAVYYCAAAGLGTVVSEWDYDYDYWGQGTQVTVSSGS[human IgG1 Fc omitted]
B2: 4A8 MB (other)
chain 1: EIVMTQSPLSSPVTLGQPASISCRSSQSLVHSDGNTYLSWLQQRPGQPPRLLIYKISNRFSGVPDRFSGSGAGTDFTLKISRVEAEDVGVYYCTQATQFPYTFGQGTKVDIKRTVAAPSVFIFPPSDEQLKSGTASVVCLLNNFYPREAKVQWKVDNALQSGNSQESVTEQDSKDSTYSLSSTLTLSKADYEKHKVYACEVTHQGLSSPVTKSFNRGECGGGGSGGGGSGGGGSGGGGSGGGGSGGGGSGGGGSGGGGSGGGGSGGGGSGGGGSGGGGSGGGGSGGGGSEVQLVESGAEVKKPGASVKVSCKVSGYTLTELSMHWVRQAPGKGLEWMGGFDPEDGETMYAQKFQGRVTMTEDTSTDTAYMELSSLRSEDTAVYYCATSTAVAGTPDLFDYYYGMDVWGQGTTVTVSSASTKGPSVFPLAPSSKSTSGGTAALGCLVKDYFPEPVTVSWNSGALTSGVHTFPAVLQSSGLYSLSSVVTVPSSSLGTQTYICNVNHKPSNTKVDKKVEPKSCGGGGSGGGGSGGGGSGGGGSGGGGSG[about 200 residues omitted]
chain 2: [human IgG1 Fc omitted]GGGGSGGGGSGGGGSGGGGSGGGGSGGGGSGGGGSGGGGSGGGGSGGGGSGGGGSGGGGSGGGGSGGGGS[human IgG1 Fc omitted]GGGGSGGGGSGGGGSGGGGSGGGGSGGSSQIRQNYSTDVEAAVNSLVNLYLQASYTYLSLGFYFDRDDVALEGVSHFFRELAEEKREGYERLLKMQNQRGGRALFQDIKKPAEDEW
chain 3: EIVMTQSPLSSPVTLGQPASISCRSSQSLVHSDGNTYLSWLQQRPGQPPRLLIYKISNRFSGVPDRFSGSGAGTDFTLKISRVEAEDVGVYYCTQATQFPYTFGQGTKVDIKRTVAAPSVFIFPPSDEQLKSGTASVVCLLNNFYPREAKVQWKVDNALQSGNSQESVTEQDSKDSTYSLSSTLTLSKADYEKHKVYACEVTHQGLSSPVTKSFNRGECGGGGSGGGGSGGGGSGGGGSGGGGSGGGGSGGGGSGGGGSGGGGSGGGGSGGGGSGGGGSGGGGSGGGGSEVQLVESGAEVKKPGASVKVSCKVSGYTLTELSMHWVRQAPGKGLEWMGGFDPEDGETMYAQKFQGRVTMTEDTSTDTAYMELSSLRSEDTAVYYCATSTAVAGTPDLFDYYYGMDVWGQGTTVTVSSASTKGPSVFPLAPSSKSTSGGTAALGCLVKDYFPEPVTVSWNSGALTSGVHTFPAVLQSSGLYSLSSVVTVPSSSLGTQTYICNVNHKPSNTKVDKKVEPKSCGGGGSGGGGSGGGGSGGGGSGGGGSGGGKTPDAMKAAMALEKKLNQALLDLHALGSARTDPHLCDFLETHFLDEEVKLIKKMGDHLTNLHRLGGPEAGLGEYLFERLTLRHD
notes: also called 4A8 Multabody
B3: MB 128 (other)
chain 1: DIQMTQSPSSLSASVGDRVTITCRASQNISRYLNWYQQKPGKAPKLLIYDASNLETGVPSRFSGSGSGTDFTLTISSLQPEDFATYYCQQANGFPPTFGQGTKLEIKRTVAAPSVFIFPPSDEQLKSGTASVVCLLNNFYPREAKVQWKVDNALQSGNSQESVTEQDSKDSTYSLSSTLTLSKADYEKHKVYACEVTHQGLSSPVTKSFNRGECGGGGSGGGGSGGGGSGGGGSGGGGSGGGGSGGGGSGGGGSGGGGSGGGGSGGGGSGGGGSGGGGSGGGGSQVQLVQSGAEVKKPGASVKVSCKASGYTFTHYYMHWVRQAPGQGLEWMGIINPSSSSASYSQKFQGRVTMTRDTSTSTVYMELSSLRSEDTAVYYCARDGRYGSGSYPFDYWGQGTLVTVSSASTKGPSVFPLAPSSKSTSGGTAALGCLVKDYFPEPVTVSWNSGALTSGVHTFPAVLQSSGLYSLSSVVTVPSSSLGTQTYICNVNHKPSNTKVDKKVEPKSCGGGGSGGGGSGGGGSGGGGSGGGGSGG[about 200 residues omitted]
chain 2: B2 chain 2
chain 3: DIQMTQSPSSLSASVGDRVTITCRASQNISRYLNWYQQKPGKAPKLLIYDASNLETGVPSRFSGSGSGTDFTLTISSLQPEDFATYYCQQANGFPPTFGQGTKLEIKRTVAAPSVFIFPPSDEQLKSGTASVVCLLNNFYPREAKVQWKVDNALQSGNSQESVTEQDSKDSTYSLSSTLTLSKADYEKHKVYACEVTHQGLSSPVTKSFNRGECGGGGSGGGGSGGGGSGGGGSGGGGSGGGGSGGGGSGGGGSGGGGSGGGGSGGGGSGGGGSGGGGSGGGGSQVQLVQSGAEVKKPGASVKVSCKASGYTFTHYYMHWVRQAPGQGLEWMGIINPSSSSASYSQKFQGRVTMTRDTSTSTVYMELSSLRSEDTAVYYCARDGRYGSGSYPFDYWGQGTLVTVSSASTKGPSVFPLAPSSKSTSGGTAALGCLVKDYFPEPVTVSWNSGALTSGVHTFPAVLQSSGLYSLSSVVTVPSSSLGTQTYICNVNHKPSNTKVDKKVEPKSCGGGGSGGGGSGGGGSGGGGSGGGGSGGGKTPDAMKAAMALEKKLNQALLDLHALGSARTDPHLCDFLETHFLDEEVKLIKKMGDHLTNLHRLGGPEAGLGEYLFERLTLRHD

Experiments:
Assay in all cases: cell-based or functional assay
[1] = biological target: T1, SARS-CoV-2 Spike on wild-type pseudotyped virus (PsV) (SARS-CoV-2)
[2] = biological target: T1, SARS-CoV-2 Spike on wild-type …; remark: listed apart in the source
[3] = biological target: T1, SARS-CoV-2 Spike on wild-type …; remark: listed apart in the source

| Binder | Median IC50 [1] | IC50 SARS-CoV2 PsV (MB) [2] | Median IC50 [3] |
| --- | --- | --- | --- |
| B1 | 16 nM | – | – |
| B2 | 0.052 µg/mL and 23 pM | – | – |
| B3 | – | 3.5 µg/mL | 3.5 µg/mL and 1.5 nM |
